Test results from the supplement of paper PMC9446081.
Out of some 39,000 compounds screened, about 220 (0.56%) showed activity. The list shows a part of the results.

Tested on: Escherichia coli K-12 BW25113
Assay: relative growth (OD600 normalised to plate interquartile mean) (fraction); higher = less growth inhibition, active = 0.2 or less
Details: 50 µM; LB; incubation time: overnight (16-24 h)
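Further: static incubation at 37 °C against the wild-type strain, values averaged over two biological replicates.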

Structure (SMILES)	relative growth
C[C@@H]1CCCCO[C@@H](CN(C)S(=O)(=O)c2ccccc2)[C@@H](C)CN([C@@H](C)CO)C(=O)c2cc(NC(=O)NC3CCCCC3)ccc2O1	inactive: 0.995
C[C@@H]1CN([C@H](C)CO)C(=O)Cc2cc(NS(=O)(=O)c3cccs3)ccc2O[C@@H]1CN(C)Cc1ccncc1	inactive: 0.975
NCCCCN	inactive: 0.989
C[C@H]1CCCCO[C@H](CN(C)Cc2ccc(C(=O)O)cc2)[C@@H](C)CN([C@@H](C)CO)C(=O)c2cc(NC(=O)NC3CCCCC3)ccc2O1	inactive: 1.02
Cc1noc(C)c1NC(=O)N(C)C[C@@H]1Oc2ccc(NC(=O)Cn3cnnn3)cc2CC(=O)N([C@H](C)CO)C[C@H]1C	inactive: 0.861
CC(C)c1nc(CN(C)C(=O)N[C@@H](CCN2CCOCC2)C(=O)N[C@H](CC[C@H](Cc2ccccc2)NC(=O)OCc2cncs2)Cc2ccccc2)cs1	inactive: 1.01
C[C@@H]1CN([C@H](C)CO)C(=O)c2cc(NC(=O)NC3CCCCC3)ccc2O[C@@H](C)CCCCO[C@@H]1CN(C)Cc1ccc(C(F)(F)F)cc1	inactive: 0.968
O=C(O)[C@@H]1CCCNC1	inactive: 1.01
CNC[C@H]1Oc2ccc(NS(=O)(=O)c3cn(C)cn3)cc2CC(=O)N([C@H](C)CO)C[C@@H]1C	inactive: 0.985
COc1ccc(S(=O)(=O)N(C)C[C@H]2Oc3c(NC(=O)c4cc(C)nn4C)cccc3C(=O)N([C@H](C)CO)C[C@H]2C)cc1	inactive: 1.01
CNC(=O)c1cccc(S(N)(=O)=O)c1	inactive: 1.04
C[C@@H]1CCCCO[C@@H](CN(C)Cc2ccc(C(F)(F)F)cc2)[C@@H](C)CN([C@@H](C)CO)C(=O)c2cc(NS(=O)(=O)c3cccs3)ccc2O1	inactive: 1.03
O=C(C[C@H]1C[C@H]2c3cc(NC(=O)c4ccc5c(c4)OCO5)ccc3O[C@H]2[C@H](CO)O1)NCc1ccc(Oc2ccccc2)cc1	inactive: 1
C[C@H]1CN([C@@H](C)CO)S(=O)(=O)c2ccc(-c3ccccc3F)cc2O[C@H]1CN(C)Cc1cncnc1	inactive: 1.01
C[C@H]1CN([C@@H](C)CO)C(=O)Cc2cc(NC(=O)Cc3ccccc3)ccc2O[C@@H]1CN(C)Cc1ccc(-c2ccccc2)cc1	inactive: 0.982
COc1ccc(S(=O)(=O)Nc2cccc3c2O[C@@H](CN(C)C(=O)NC(C)C)[C@@H](C)CN([C@H](C)CO)C3=O)cc1	inactive: 0.991
CC(=O)NC1C(O)CC(O)(C(=O)O)OC1C(O)C(O)CO (stereo not given)	inactive: 1.21
CN(C)CCCNC(=O)C[C@H]1C=C[C@H](NS(=O)(=O)c2ccccc2)[C@@H](CO)O1	inactive: 0.954
C[C@H](CO)N1C[C@H](C)[C@H](CN(C)S(=O)(=O)c2cccs2)Oc2ccc(NC(=O)CCN3CCOCC3)cc2CC1=O	inactive: 0.981
CC(C)(O)[C@H]1CC[C@@](C)([C@H]2[C@@H](O)C[C@@]3(C)[C@@H]4C[C@H](O[C@@H]5O[C@H](CO)[C@@H](O)[C@H](O)[C@H]5O)[C@H]5C(C)(C)[C@@H](O[C@@H]6OC[C@@H](O)[C@H](O)[C@H]6O)CC[C@@]56C[C@@]46CC[C@]23C)O1	inactive: 1.04

Structure (SMILES)	relative growth
COc1ccc2c3c([nH]c2c1)[C@@H](CO)N(C[C@]13CN(CC2CCOCC2)C1)S(=O)(=O)c1cn(cn1)C	inactive: 0.988
COc1ncccc1C#N	inactive: 1.01
CC(C)[C@@H]1CC[C@@H](C)CC1=O	inactive: 1
C[C@@H]1CCCCO[C@H](CN(C)Cc2ccc3c(c2)OCO3)[C@@H](C)CN([C@@H](C)CO)C(=O)c2cc(NS(=O)(=O)c3cccs3)ccc2O1	inactive: 0.995
CC(=O)c1cc2ccccc2s1	inactive: 0.989
COc1ccc(S(=O)(=O)Nc2ccc3c(c2)C(=O)N([C@@H](C)CO)C[C@H](C)[C@H](CN(C)Cc2ccc(C(=O)O)cc2)OCCCC[C@@H](C)O3)cc1	inactive: 0.985
C[C@@H]1CCCCO[C@@H](CN(C)S(=O)(=O)c2ccc(Cl)cc2)[C@H](C)CN([C@@H](C)CO)C(=O)c2cc(NC(=O)NC3CCCCC3)ccc2O1	inactive: 1.02
CC(C)(C)[S@](=O)N1Cc2cc(C(=O)NCCc3ccncc3)nc(-c3cccc(-c4cccc(C#N)c4)c3)c2[C@@H]1CCO	inactive: 1.04
N=C(N)NCCCCNC(=N)N.O=S(=O)(O)O	inactive: 1.03
Cc1noc(C)c1S(=O)(=O)Nc1ccc2c(c1)C(=O)N([C@@H](C)CO)C[C@@H](C)[C@@H](CN(C)Cc1ccncc1)O2	inactive: 1.02
C[C@@H]1CN([C@H](C)CO)C(=O)c2cc(-c3ccc(C(=O)N(C)C)cc3)cnc2O[C@@H]1CN(C)C(=O)C1CC1	inactive: 1.01
Cc1noc(C)c1NC(=O)N(C)C[C@@H]1Oc2ccc(NC(=O)NC(C)C)cc2CC(=O)N([C@H](C)CO)C[C@@H]1C	inactive: 0.964
C[C@@H]1CN([C@H](C)CO)C(=O)c2cccc(NC(=O)c3cnccn3)c2O[C@@H]1CN(C)C(=O)Nc1ccc2c(c1)OCO2	inactive: 0.997
C[C@@H]1CCCCO[C@@H](CN(C)C)[C@H](C)CN([C@H](C)CO)C(=O)c2cc(NC(=O)Nc3ccc(C(F)(F)F)cc3)ccc2O1	inactive: 0.937
CC(C)NC(=O)N(C)C[C@@H]1Oc2ccc(NS(=O)(=O)c3ccccc3)cc2CC(=O)N([C@@H](C)CO)C[C@@H]1C	inactive: 1.02
CN(C)CCCNC(=O)C[C@H]1CC[C@@H]2[C@@H](COc3ccc(NC(=O)c4cccc(F)c4)cc3C(=O)N2C)O1	inactive: 0.979
Cc1ccc(S(=O)(=O)Nc2ccc3c(c2)C(=O)N([C@H](C)CO)C[C@@H](C)[C@H](CN(C)S(=O)(=O)c2ccc(F)cc2)OCCCC[C@H](C)O3)cc1	inactive: 1.03
CCCNC(=O)Nc1ccc2c(c1)OC[C@H](C)N(C(=O)C1CCOCC1)C[C@@H](C)[C@H](OC)CN(C)C2=O	inactive: 0.978
C[C@H]1CN([C@@H](C)CO)C(=O)c2cc(NS(=O)(=O)c3cccs3)ccc2O[C@@H]1CN(C)S(=O)(=O)c1cccs1	inactive: 0.998
C[C@@H]1CN([C@H](C)CO)C(=O)Cc2cc(NC(=O)CCN3CCOCC3)ccc2O[C@H]1CN(C)S(C)(=O)=O	inactive: 0.987

Structure (SMILES)	relative growth
O=C(C[C@@H]1CC[C@H]2[C@@H](COC[C@H](O)CN2C(=O)Nc2ccc(Cl)cc2)O1)NCCc1ccncc1	inactive: 0.957
Cc1noc(C)c1S(=O)(=O)Nc1ccc2c(c1)C(=O)N([C@@H](C)CO)C[C@@H](C)[C@H](CN(C)Cc1ccc(Oc3ccccc3)cc1)O2	inactive: 0.998
C[C@@H]1CN([C@H](C)CO)C(=O)c2cccc(NC(=O)Nc3ccccc3)c2O[C@H]1CN(C)C(=O)Nc1ccc(C(F)(F)F)cc1	inactive: 0.808
CNC[C@@H]1OCCCC[C@H](C)Oc2ccc(NC(=O)Nc3cccc4ccccc34)cc2C(=O)N([C@@H](C)CO)C[C@H]1C	inactive: 1.02
CO[C@@H](CNS(C)(=O)=O)c1ccsc1	inactive: 0.991
C[C@@H]1CN([C@H](C)CO)C(=O)c2cc(NC(=O)Cn3cnnn3)ccc2O[C@@H]1CN(C)S(=O)(=O)c1ccccc1	inactive: 1.02
C[C@@H]1CN([C@@H](C)CO)C(=O)c2cc(C#Cc3ccccc3F)cnc2O[C@H]1CN(C)C(=O)c1ccc2c(c1)OCO2	inactive: 0.993
COc1ccc(CN2C[C@@H](C)[C@@H](OC)CN(C)C(=O)c3cc(NC(=O)c4nc5ccccc5s4)ccc3OC[C@@H]2C)cc1	inactive: 1.07
C[C@@H]1CCCCO[C@@H](CN(C)C(=O)NC2CCCCC2)[C@H](C)CN([C@@H](C)CO)C(=O)c2cc(NS(=O)(=O)c3ccc(F)cc3)ccc2O1	inactive: 0.97
O=C(C[C@H]1C=C[C@H](NC(=O)C2CC2)[C@@H](CO)O1)NCCCN1CCOCC1	inactive: 1.02
C[C@H]1CN([C@@H](C)CO)C(=O)Cc2cc(NS(=O)(=O)c3ccccc3)ccc2O[C@H]1CN(C)CC1CC1	inactive: 0.981
C[C@@H]1CCCCO[C@H](CN(C)Cc2ccc(C(=O)O)cc2)[C@H](C)CN([C@H](C)CO)C(=O)c2cc(NS(=O)(=O)c3ccc(F)cc3)ccc2O1	inactive: 0.97
COCC#Cc1ccc2c(c1)O[C@H](CN(C)S(=O)(=O)c1ccc(F)cc1)[C@@H](C)CN([C@H](C)CO)S2(=O)=O	inactive: 1.03
COc1cccc(NC(=O)N(C)C[C@@H]2OCc3ccccc3-c3c(n(C)c4ccccc34)C(=O)N([C@H](C)CO)C[C@H]2C)c1	inactive: 1.03
C[C@@H]1CN([C@@H](C)CO)S(=O)(=O)c2ccc(Br)cc2O[C@H]1CN(C)Cc1ccccc1F	inactive: 1.03
C[C@@H]1CCCCO[C@@H](CN(C)S(=O)(=O)c2cccs2)[C@H](C)CN([C@H](C)CO)C(=O)c2cc(NC(=O)C3CCCCC3)ccc2O1	inactive: 1.02
C=C1[C@@H]2[C@H]3OC(=O)[C@@H](C)[C@@H]3[C@@H](O[C@@H]3O[C@H](CO)[C@@H](O)[C@H](O)[C@H]3O)CC(=C)[C@@H]2C[C@@H]1O	inactive: 1.01
COc1ccccc1C#Cc1cnc2c(c1)C(=O)N([C@@H](C)CO)C[C@@H](C)[C@@H](CN(C)C(=O)CN(C)C)O2	inactive: 1.02
CN(C)CC(=O)N1CC2(C1)[C@@H](c1ccccc1)[C@H](CO)N2S(C)(=O)=O	inactive: 0.982
Cn1c([C@H]2C=C(C(=O)N[C@H]3c4ccccc4C[C@H]3O)O[C@@H](OCCCCO)C2)cc(=O)n1-c1ccccc1	inactive: 1
